The other results are listed elsewhere or left out. Cut-off read from the data, not from the text of the source: active = 3.2 or more and inactive = the rest. Most of these values are background signal.
B1: TP53_Y220_V225D (peptide)
chain: SVVVPYEPPED
B2: TP53_Y234_I232L (peptide)
chain: CTTLHYNYMCN
B3: TP53_Y234_C229N_YF (peptide)
chain: NTTIHYNFMCN
B4: TP53_Y220_Y220C (peptide)
chain: SVVVPCEPPEV
B5: TP53_Y220_Y220F (peptide)
chain: SVVVPFEPPEV
B6: TP53_Y234_H233Y_YF (peptide)
chain: CTTIFYNFMCN
B7: TP53_Y220_V218L (peptide)
chain: SVVLPYEPPEV
B8: TP53_Y234_C229Y_YF (peptide)
chain: FTTIHYNFMCN
B9: TP53_Y234_C229R_YF (peptide)
chain: RTTIHYNFMCN
B10: TP53_Y234_C238S_YF (peptide)
chain: CTTIHYNFMSN

Biological target: SHP2 C-SH2 domain E139D
Assay: enrichment score (SH2-bound / input frequency) (ratio); bacterial display of known human phosphotyrosine sites (pTyr-Var adds point mutants) read by sequencing; higher = stronger binding; tyrosines were phosphorylated by kinases first
Settings: peptide library: pTyr-Var
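Note: displayed peptides selected on beads carrying the immobilized SH2 domain, with library peptides lacking any tyrosine serving as negative controls.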

Enrichment score, inactive:
B1 0.705
B3 0.776
B4 0.817
B5 0.787
B7 1.19
B8 2.05
B9 1.03
B10 1.49

Enrichment score, active:
B2 4.21
B6 3.88

Biological target: SHP2 C-SH2 domain wild-type
Assay: as above
Settings: peptide library: pTyr-Var

Enrichment score, inactive:
B1 0.653
B3 1
B4 0.872
B5 0.799
B7 0.997
B8 2.39
B9 1.16
B10 1.62

Enrichment score, active:
B2 5.14
B6 3.63

Biological target: SHP2 N-SH2 domain L43F
Assay: as above
Settings: peptide library: pTyr-Var

Enrichment score, active:
B2 3.28
B6 3.9

Enrichment score, inactive:
B1 0.792
B3 0.834
B4 0.931
B5 0.824
B7 1.1
B8 2.24
B9 1.06
B10 1.56

Biological target: SHP2 N-SH2 domain T42A
Assay: as above
Settings: peptide library: pTyr-Var

Enrichment score, inactive:
B1 0.581
B2 2.65
B3 0.895
B4 0.931
B5 0.696
B6 2.43
B7 0.831
B8 2.2
B9 1.16
B10 1.26

Biological target: SHP2 N-SH2 domain T52S
Assay: as above
Settings: peptide library: pTyr-Var

Enrichment score, inactive:
B1 0.732
B2 3.18
B3 0.754
B4 0.774
B5 0.942
B7 1.02
B8 1.88
B9 1.24
B10 1.43

Enrichment score, active:
B6 3.23

Biological target: SHP2 N-SH2 domain wild-type
Assay: as above
Settings: peptide library: pTyr-Var

Enrichment score, inactive:
B1 0.649
B2 2.98
B3 1.02
B4 1.01
B5 1.08
B7 1.09
B8 2.31
B9 1.33
B10 1.46

Enrichment score, active:
B6 3.48

Source: the supplement of paper PMC10369915
